The whole screen tested about 360,000 compounds, of which about 25,000 (6.9%) were called active. Inconclusive means that the source gave no clear call. Such entries were picked first, then a sample of the others. Calls follow the shape of the dose curve; as a rule, active = well fitted inhibition curve with a large enough effect; inconclusive = small, poorly fitted or top-dose-only effect; inactive = flat fitted curve, though single readings scatter. Potencies of inconclusive entries are doubtful fits and often do not repeat.
These compounds were tested against Luciferin 4-monooxygenase (Photinus pyralis) (UniProt P08659) (assay: qHTS profiling assay for firefly luciferase inhibitor/activator using purifed enzyme and Km concentrations of substrates (counterscreen for miR-21 project)). Details: purified FLuc, luminescence inhibition; series mostly up to 57.5 µM; activity change, negative = inhibition: at the top concentration.
UniProt P08659, sequence (P08659 whole entry, looked up): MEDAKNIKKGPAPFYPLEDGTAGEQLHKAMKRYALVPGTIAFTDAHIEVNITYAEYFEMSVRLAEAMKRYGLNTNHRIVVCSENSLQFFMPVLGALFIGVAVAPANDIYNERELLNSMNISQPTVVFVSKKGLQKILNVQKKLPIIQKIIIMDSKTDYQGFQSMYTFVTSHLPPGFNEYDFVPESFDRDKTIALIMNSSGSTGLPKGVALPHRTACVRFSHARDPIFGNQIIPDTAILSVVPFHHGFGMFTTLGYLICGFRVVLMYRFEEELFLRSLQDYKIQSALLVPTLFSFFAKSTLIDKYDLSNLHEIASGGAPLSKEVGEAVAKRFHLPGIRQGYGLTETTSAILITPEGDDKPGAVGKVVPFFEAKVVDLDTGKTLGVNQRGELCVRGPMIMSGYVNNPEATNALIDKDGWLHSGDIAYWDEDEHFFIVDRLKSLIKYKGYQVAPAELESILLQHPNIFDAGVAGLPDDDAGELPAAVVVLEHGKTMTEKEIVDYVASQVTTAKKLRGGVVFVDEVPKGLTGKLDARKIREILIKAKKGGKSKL
How it was run: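 Purified P. pyralis luciferase, 10 nM final, with Km-level 10 uM D-luciferin and 10 uM ATP in 50 mM Tris acetate pH 7.5, 10 mM Mg acetate, 0.01% Tween-20, 0.05% BSA; 6-point qHTS titration about 60 µM downward; luminescence read.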
For Cc1ccc(S(=O)(=O)N/N=C\c2cn(-c3ccccc3)nc2-c2ccccc2)cc1, the Potency was inconclusive: 26.9 µM [inhibitor, partial curve, poor fit]. In the case of O=C(Nc1nc2ccccc2s1)C1=NN(c2ccccc2)C(=O)CC1, the Potency is reported as inconclusive: 21.3 µM [inhibitor, single point]. COc1ccc(OCc2cc(C(=O)NCCCc3ccccc3)no2)c(Cl)c1 was tested, and the Potency was inconclusive: 21.3 µM [inhibitor, partial curve, poor fit]. In the case of Cc1oc2cc(O)cc(C)c2c(=O)c1-c1cnn(-c2ccccc2)c1, the “activity change, negative = inhibition” value is reported as inactive: -1.67%. Cc1cccc(C)c1Nc1nc2ccccc2nc1NS(=O)(=O)c1ccccc1 was tested, and the Potency was inconclusive: 13.5 µM [inhibitor, partial curve]. With CC(C)Cc1nnc(NC(=O)c2ccc([N+](=O)[O-])cc2)s1 the Potency was inconclusive: 13.5 µM [inhibitor, partial curve, poor fit]. For O=C(Nc1ccncc1)Nc1ccc(F)cc1, the Potency was inconclusive: 37.9 µM [inhibitor, single point]. For Cc1ccc(NC(=O)C2CCCN(c3ncccn3)C2)cc1F (stereo not drawn), the Potency was active: 10.7 µM. In the case of CCOc1ccc(C(=O)Nc2ccccc2N2CCOCC2)cc1, the Potency is reported as inconclusive: 37.9 µM [inhibitor, single point]. In the case of Cc1ccc2c(c1)c1c(c(=O)n(Cc3ccccc3)c(=O)n1CC(=O)NCc1ccccc1Cl)n2C, the “activity change, negative = inhibition” value is reported as inactive: -1.66%. With Cc1ccc(S(=O)(=O)Oc2ccc(/C=N/N=C3/NC(=O)C(CC(=O)O)S3)cc2)cc1[N+](=O)[O-] (stereo not drawn) the “activity change, negative = inhibition” value was inactive: -2.44%. For CCOC(=O)Nc1ccc2nc(N3CCCCCC3)sc2c1, the Potency was active: 7.57 µM. With COC(=O)c1ccccc1NC(=O)c1ccc2c(c1)CC(C)O2 (stereo not drawn) the Potency was active: 16.9 µM. With Cc1cc(C(=O)NCCC(c2ccccc2)c2ccccc2)c(C)o1 the Potency was inconclusive: 23.9 µM [inhibitor, partial curve, poor fit]. For O=C(CSCc1ccc(C(=O)O)cc1)Nc1ccc2ccccc2c1, the Potency was inconclusive: 30.1 µM [inhibitor, partial curve, poor fit]. CC1CCc2c(sc3nc(SCC(=O)O)n(-c4ccccc4)c(=O)c23)C1 (stereo not drawn) was tested, and the Potency was active: 21.3 µM. CSc1ccccc1OCc1cc(C(=O)N[C@H]2CCCCNC2=O)no1 was tested, and the Potency was active: 10.7 µM. O=C(c1ccc(Cl)c([N+](=O)[O-])c1)N(Cc1ccccc1)C1CCS(=O)(=O)C1 (stereo not drawn) was tested, and the “activity change, negative = inhibition” value was inactive: -2.35%. With CC(=O)N1CCC(=NNC(=O)c2cccs2)CC1 the Potency was inconclusive: 23.9 µM [inhibitor, single point]. For Cc1cc(C)cc(NC(=O)c2cnc3sc(N4CCCC4)nn3c2=O)c1, the “activity change, negative = inhibition” value was inactive: -2.76%. For COc1ccc(NC(=O)Nc2cccc([N+](=O)[O-])c2)cc1Cl, the Potency was active: 21.3 µM. In the case of COc1ccc(-c2cn(-c3ccc(C)c(Cl)c3)c(=S)[nH]2)cc1OC, the “activity change, negative = inhibition” value is reported as inactive: -3.9%. In the case of O=C(c1cc(-c2ccncc2)nc2ccccc12)N1CCN(c2ccccn2)CC1, the Potency is reported as inconclusive: 21.3 µM [inhibitor, single point]. For Fc1ccc2[nH]c(-c3cccs3)cc2c1, the Potency was inconclusive: 23.9 µM [inhibitor, partial curve]. Cc1ccc(NC(=O)CSc2n[nH]c(=O)n2C2CC2)cc1S(=O)(=O)N1CCOCC1 was tested, and the “activity change, negative = inhibition” value was inactive: 8.5%. CCCCc1nn2c(=O)cc(COC(=O)c3ccc(NC(=O)C(CC)CC)cc3)nc2s1 was tested, and the “activity change, negative = inhibition” value was inactive: -1.38%. For Cc1cc(Br)cc2c(C(=O)NCC3CCCO3)cc(-c3ccccc3)nc12 (stereo not drawn), the Potency was active: 1.35 µM. In the case of CC(=O)c1ccc(NS(=O)(=O)c2ccc(-c3cnc(C4CC4)o3)cc2)cc1, the Potency is reported as inconclusive: 15.1 µM [inhibitor, partial curve, poor fit]. In the case of Cc1cc(C)nc(SC/C=C/c2ccccc2)n1, the Potency is reported as inconclusive: 21.3 µM [inhibitor, single point]. For Cc1ccc(/C=N/N2CCN(Cc3ccccc3)CC2)cc1, the Potency was inconclusive: 19 µM [inhibitor, partial curve, poor fit]. For Cc1cc(S(=O)(=O)N2CCN(c3ccccn3)CC2)c(C)cc1Cl, the “activity change, negative = inhibition” value was inactive: -2.08%. In the case of COC(=O)c1ccc(-n2c(C)cc(C(=O)CSc3cccc[n+]3[O-])c2C)cc1, the Potency is reported as inconclusive: 23.9 µM [inhibitor, single point]. In the case of CN(C)S(=O)(=O)N1CCC(Oc2cccc(C(=O)N3CCCCCCC3)c2)CC1, the “activity change, negative = inhibition” value is reported as inactive: -1.58%. For CCCCNC(=O)c1onc(CSc2cccc(OC)c2)c1C(=O)O, the Potency was inconclusive: 37.9 µM [inhibitor, partial curve, poor fit]. For CCN(CC)c1ccc(C(=O)OCC(=O)Nc2sccc2C#N)cc1, the Potency was active: 12 µM. For COc1cc(/C=N/Nc2ccccn2)cc(OC)c1O, the Potency was active: 12 µM. For CNC(=S)Nc1cccc(C(=O)OC)c1, the “activity change, negative = inhibition” value was inactive: -3.31%. For Cc1cc(/C([O-])=C(/C(=S)Nc2ccc(F)cc2)[n+]2ccccc2)c(C)n1-c1ccc(F)cc1, the Potency was inconclusive: 30.1 µM [inhibitor, single point]. With COc1ccc(CNc2ccccc2SC)cc1OC the Potency was inconclusive: 23.9 µM [inhibitor, single point]. With Cc1ccc(C(=O)COC(=O)C(Cc2c[nH]c3ccccc23)NC(=O)c2ccc(C(C)(C)C)cc2)cc1 (stereo not drawn) the Potency was inconclusive: 12 µM [inhibitor, partial curve, poor fit]. In the case of C/C=C(\C)C(=O)N1CC2(CC(c3cccc(NC(=O)COc4ccc(Cl)cc4)c3)=NO2)C[C@@H]1C(N)=O (stereo partly drawn), the Potency is reported as active: 15.1 µM. With CC(C)CN(CC(C)C)C(=O)CN1C(=O)NC2(CCc3ccccc3C2)C1=O (stereo not drawn) the “activity change, negative = inhibition” value was inactive: -0.149%. In the case of Cc1ccccc1OCC(O)Cn1nnc2ccccc21 (stereo not drawn), the Potency is reported as active: 21.3 µM. For Cc1ccccc1C(=O)Nc1cccc(C(=O)OCc2cc(=O)n3ccsc3n2)c1, the Potency was inconclusive: 23.9 µM [inhibitor, partial curve]. COc1ccc(CNC(=O)C2CCCN(S(=O)(=O)c3c(C)noc3/C=C/N(C)C)C2)cc1 (stereo not drawn) was tested, and the “activity change, negative = inhibition” value was inactive: 1.68%. COc1ccc(-c2nc3ccccc3n2OCC(=O)O)cc1 was tested, and the Potency was active: 3.01 µM. For CCCOc1ccc(CNC(=O)Cc2cccs2)cc1, the Potency was active: 19 µM. In the case of CC1Cc2ccccc2N1C(=O)CCS(=O)(=O)c1ccc2c(c1)NC(=O)CS2 (stereo not drawn), the “activity change, negative = inhibition” value is reported as inactive: -2.28%. For Cc1ccc(NC(=O)c2ccc(CN3CC(=O)N4CCCCC4C3=O)cc2)cc1 (stereo not drawn), the Potency was inconclusive: 37.9 µM [inhibitor, partial curve, poor fit]. For COc1ccc(OC)c(CNC(=O)c2cnc3c(C)cccn3c2=O)c1, the “activity change, negative = inhibition” value was inactive: 2.67%. For COC(=O)[C@H](CCSC)NC(=O)c1cc2c(cn1)[nH]c1ccccc12, the Potency was inconclusive: 9.53 µM [inhibitor, partial curve]. For COc1ccc(-c2nnc(NC(=O)c3ccc([N+](=O)[O-])o3)o2)c(OC)c1, the Potency was inconclusive: 23.9 µM [inhibitor, partial curve]. For COc1cc(C(=O)NC(=S)Nc2ccc3c(c2)OCO3)cc(OC)c1OC, the Potency was inconclusive: 19 µM [inhibitor, partial curve]. COc1ccccc1NC(=O)Nc1cccnc1 was tested, and the Potency was inconclusive: 23.9 µM [inhibitor, partial curve, poor fit]. With O=[N+]([O-])c1ccc(N/N=C/c2ccccc2)cc1 the Potency was active: 19 µM. In the case of O=C(Nc1nc(-c2ccccc2)ns1)c1cccs1, the Potency is reported as active: 15.1 µM. With O=C(Nc1nc2cc3c(cc2s1)OCO3)C1CC1 the Potency was inconclusive: 3.01 µM [inhibitor, partial curve, poor fit]. With COc1ccc(C)cc1NC(=O)C1CCN(S(=O)(=O)c2ccc3c(c2)C(C)(C)C(=O)N3C)CC1 the “activity change, negative = inhibition” value was inactive: -0.353%. In the case of CC(=O)c1ccc(Nc2ccc([N+](=O)[O-])c3nonc23)cc1, the Potency is reported as inconclusive: 16.9 µM [inhibitor, partial curve]. With CC1=C(C(=O)Nc2ccc(C)cc2C)C(c2ccc(C(=O)O)cc2)n2nc(SCc3ccccc3)nc2N1 (stereo not drawn) the Potency was inconclusive: 23.9 µM [inhibitor, partial curve, poor fit]. CC(=O)O/N=C(/c1nonc1N)N(C)C was tested, and the Potency was inconclusive: 0.0054 µM [inhibitor, partial curve, poor fit]. With CCN(CC)c1c([N+](=O)[O-])c(=O)sc2ccccc12 the Potency was inconclusive: 37.9 µM [inhibitor, partial curve, poor fit]. For Cc1ccc(N2C(=NC(=O)c3ccccc3)SC3CS(=O)(=O)CC32)cc1 (stereo not drawn), the “activity change, negative = inhibition” value was inactive: 3.68%. With COc1cccc(OCC(=O)NCCS(=O)(=O)N2CCN(c3ccccc3F)CC2)c1 the “activity change, negative = inhibition” value was inactive: -9.76%. COc1ccc(-c2cn3cccnc3n2)cc1NC(=O)Cc1ccccc1 was tested, and the Potency was inconclusive: 37.9 µM [inhibitor, partial curve, poor fit]. In the case of CC(C)c1nnc(NC(=O)C2CCCN2C(=O)Nc2cccc(Cl)c2)s1 (stereo not drawn), the “activity change, negative = inhibition” value is reported as inactive: 0.483%. In the case of c1ccc(N2CCN(c3nc4ccccc4[nH]3)CC2)nc1, the Potency is reported as inconclusive: 37.9 µM [inhibitor, single point]. For CCc1nc2cccnc2n1-c1ccc(CC(=O)Nc2c(C)cccc2C)cc1, the “activity change, negative = inhibition” value was inactive: -0.458%. O=C(CSc1ncnc2c1oc1ccccc12)OCc1ccccc1 was tested, and the Potency was inconclusive: 37.9 µM [inhibitor, single point]. For Cc1ccc(C(=O)c2no[n+]([O-])c2C(=O)c2ccc(C)cc2)cc1, the “activity change, negative = inhibition” value was inactive: -13%. In the case of Cc1cc(C)n2c(Nc3ccc(C(C)C)cc3)c(-c3ccsc3)nc2n1, the Potency is reported as active: 10.7 µM. In the case of COc1ccccc1C(=O)OCC(=O)Nc1ccccc1OC(F)F, the Potency is reported as inconclusive: 37.9 µM [inhibitor, partial curve, poor fit]. In the case of COc1cccc(C(=O)Nc2cc3c4c(c2)CC(=O)N4CCC3)c1, the Potency is reported as inconclusive: 16.9 µM [inhibitor, partial curve].
Also: nearly all actives have a fitted effect of over 55% in size.
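For activity change, negative = inhibition in this document: plate controls were vehicle for no effect and reference inhibitor for full effect.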
Potency is read from the fitted curve at half-maximal effect; tags tell the direction and shape of the fitted curve.
